The whole screen tested about 48,000 compounds, of which about 1,200 (2.5%) were called active. Roughly 2% stayed inconclusive and do not appear here.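 How the source made its calls: active means activation of at least 60% and not above a set upper limit (about 1 call in 100 departs from these limits); inconclusive means activation of 40% to 60%, or above that upper limit; inactive means activation under 40%.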 This is one part of the list.
molecular target: Probable G-protein coupled receptor 32 (Homo sapiens) (UniProt O75388); experiment: qHTS for Agonists of Human Resolvin D1 Receptor DRV1; conditions: CHO-K1 GPR32 beta-arrestin PathHunter luminescence, 90 min; at 76.9 µM; hits give high values; zero percent set by DMSO-only wells; further: 0% is about no effect
In short: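 Step 1: seed CHO-K1 GPR32 beta-arrestin cells, 2,500/well, overnight at 37 °C. Step 2: add compounds, 90 min at 37 °C. Step 3: detection reagent, 1 h ambient, then luminescence.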

Chain of UniProt O75388 (O75388 whole entry, looked up): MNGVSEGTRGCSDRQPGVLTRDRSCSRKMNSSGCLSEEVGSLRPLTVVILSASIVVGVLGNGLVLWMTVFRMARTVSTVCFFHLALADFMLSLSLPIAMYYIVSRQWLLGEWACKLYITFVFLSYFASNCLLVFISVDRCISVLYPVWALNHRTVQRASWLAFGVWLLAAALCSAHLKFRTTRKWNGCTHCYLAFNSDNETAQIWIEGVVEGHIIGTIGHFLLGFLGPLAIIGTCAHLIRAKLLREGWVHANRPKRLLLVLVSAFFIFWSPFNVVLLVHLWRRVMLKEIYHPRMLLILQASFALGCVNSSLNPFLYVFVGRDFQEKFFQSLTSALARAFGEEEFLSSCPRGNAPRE

Row | SMILES | activation
1 | Cc1cc(NC(=O)CSc2nc(-c3ccccc3C)nc3c2c(=O)n(C)c(=O)n3C)no1 | inactive: -10.2%
2 | CCOc1cc(C(=O)Nc2cccc3cccnc23)cc(OCC)c1OCC | inactive: -13.6%
3 | COc1ccc(Cl)cc1NC(=O)c1ccc2c(c1)CCN2S(C)(=O)=O | inactive: 4.74%
4 | CCN(C(=O)Cn1c(=O)oc2cc(S(=O)(=O)N3CCCCCC3)ccc21)c1cccc(C)c1 | inactive: -19.6%
5 | Cc1cccc(OC(=O)c2snnc2C)c1 | inactive: 8.8%
6 | Cc1cccc(C)c1Nc1c(-c2ccccn2)nc2ccc(Cl)cn12 | inactive: -22.4%
7 | Cn1cc(S(=O)(=O)N2CCCCCC2)cc1C(=O)NCc1ccc(F)cc1 | inactive: 27.4%
8 | O=C(NCc1ccccc1)NC1COc2ccccc2C1 (configuration not stated) | inactive: -13.5%
9 | O=C(NCCc1ccc(Cl)cc1)c1ccc(Nc2nc3ccccc3n3nnnc23)cc1 | inactive: 2.91%
10 | CCOc1ccccc1NC(=O)CSc1ncc2c(n1)-c1ccccc1N(CC)S2(=O)=O | inactive: -16.2%
11 | COc1ccc(CNCc2ccc(C(=O)O)s2)cc1 | inactive: -13.5%
12 | CCOc1ccc(NC(=O)c2sc(-n3nc(C)c(CCC(C)C)c3C)nc2C)cc1 | inactive: -1.78%
13 | COc1ccc(NC(=O)c2nc(SCc3ccc(F)cc3)ncc2Cl)cc1 | inactive: -33.6%
14 | Cc1cccc(NC(=O)C(=O)NCCCN2CCOCC2)c1 | inactive: 14%
15 | CCOc1ccccc1CNC(=O)c1ccc2nc(N3CCC(C)CC3)sc2c1 | inactive: 5.45%
16 | Cc1ccccc1Nc1c(-c2ccc(N3CCOCC3)cc2)nc2cccc(C)n12 | inactive: -14.8%
17 | CCC(C)Nc1nc2c(c(=O)[nH]c(=O)n2C)n1Cc1ccc(F)cc1 (configuration not stated) | inactive: -2.79%
18 | CC1=C(c2ccc(C)cc2)S(=O)(=O)NC1=NCc1ccccc1Cl | inactive: -8.17%
19 | OCC(O)CN1CCN(c2ccccc2)CC1 (configuration not stated) | inactive: 1.61%

Row | SMILES | activation
20 | COC(=O)c1cc2sccc2n1Cc1nc(-c2cccc(Cl)c2)oc1C | inactive: -3.37%
21 | C=Cc1ccc(Cn2c(C(=O)O)c(CNCCc3ccco3)c3ccc(C)cc32)cc1 | active: 88.5%
22 | CCCCOC(=O)CSc1ncnc2sc3c(c12)CCC(C)C3 (configuration not stated) | inactive: -0.513%
23 | COc1cc(NC(=O)CN2CCCN(Cc3cccc(F)c3)S2(=O)=O)cc(OC)c1 | inactive: -2.97%
24 | CCOC(=O)c1c(C)oc2nc(C)nc(NCCc3ccc(C)cc3)c12 | inactive: -2.32%
25 | CCCc1cc(N2CCN(c3ccccc3F)CC2)n2cnnc2n1 | inactive: 31.3%
26 | COc1ccccc1N1CCN(CCN2C(=O)CC3(CCCC3)CC2=O)CC1 | inactive: 6.97%
27 | Cc1cccc(C(=O)Nc2ccc(N3CC=C(c4ccccc4C)CC3)c(C(=O)O)c2)c1 | inactive: 10.5%
28 | Cc1ccc(CN2C(=O)c3ccccc3Sc3ccc(C(=O)N4CCOCC4)cc32)cc1 | inactive: -16%
29 | CC1=C(C(=O)N2CCCCC2)C(c2ccc(Cl)cc2)n2c(nc3ccccc32)N1 (configuration not stated) | inactive: -13.1%
30 | CCCNC(=O)c1cc2n(n1)CCCN(Cc1ccc(C)cc1)C2=O | inactive: 2.64%
31 | Cc1ccc(NC(=O)c2oc3ccc(S(=O)(=O)N(C)C4CCCCC4)cc3c2C)c(C)c1 | inactive: -6.77%
32 | COc1ccc(-c2nc(C)c(CCNC(=O)c3ccc(C(F)(F)F)cc3)s2)cc1OC | inactive: 0.68%
33 | CCOc1ccc(NC(=O)CSc2oc(-c3ccco3)nc2S(=O)(=O)c2ccccc2)cc1 | inactive: -14.8%
34 | CC(C)(Oc1ccc(Cl)cc1)C(=O)OCCCOC(=O)C(C)(C)Oc1ccc(Cl)cc1 | inactive: -12.3%
35 | COc1ccc(CNC(=O)CCCc2nnc3n(C(C)C)c(=O)c4sccc4n23)cc1 | inactive: -3.06%
36 | O=S(=O)(c1ccccc1)c1nc(-c2ccc(F)cc2)oc1NCc1ccccc1 | inactive: -23.2%
37 | O=C(COc1ccccc1F)Nc1ccc2nc(SCC(=O)N3CCOCC3)sc2c1 | inactive: 17.4%
38 | CCOc1ccc(CNC(=O)CSc2c3c(nc4cc(Cl)ccc24)CCCC3)cc1 | inactive: -17.7%

Row | SMILES | activation
39 | CCOC(=O)c1cccc(NC(=O)CSc2ncc3c(n2)-c2ccc(Cl)cc2N(Cc2ccccc2)S3(=O)=O)c1 | inactive: 7.98%
40 | COc1ccccc1CNC(=O)CCS(=O)(=O)c1ccc2c(c1)oc(=O)n2C | inactive: 3.83%
41 | Cc1c(-c2nsc(NC(=O)c3cccs3)n2)nnn1-c1ccc(F)cc1 | inactive: -4.17%
42 | Cc1ccc(S(=O)(=O)Nc2cc(Cl)c3oc4c(c3c2)CCCC4)cc1 | inactive: 34%
43 | O=C(NCCc1ccccc1)c1ccc2c(c1)nc1n2CCOC1 | inactive: -6.94%
44 | CCOC(=O)c1oc2c(c1C)-c1nn(Cc3cccc(Cl)c3)cc1CC2 | inactive: -8.63%
45 | CCN(CC)S(=O)(=O)c1ccc2c(c1)N(CC(=O)Nc1c(C)cccc1C)C(=O)C1CCCN21 (configuration not stated) | inactive: -23.5%
46 | Cc1c(C)n(Cc2ccccc2)c2ccc(C(=O)N3CCN(c4ccccc4)CC3)cc12 | inactive: -33.2%
47 | COc1ccc(C(=O)NC(c2ccccc2Cl)c2cc(Cl)c3cccnc3c2O)cc1 (configuration not stated) | inactive: -54.1%
48 | CN1Cc2sccc2C(c2ccc(O)c(O)c2)C1 (configuration not stated) | inactive: -13.3%
49 | CC(C)Oc1ccc(C(=O)N(Cc2ccc(N(C)C)cc2)Cc2ccco2)cc1 | inactive: -15.1%
50 | Cc1ccc(OCC(=O)NCC(=O)OCc2cc(=O)n3nc(C(C)C)sc3n2)cc1 | inactive: 6.73%
51 | Cc1cc(O)c(C(c2ccccc2)N2CCN(c3ccc(F)cc3)CC2)c(=O)n1Cc1ccco1 (configuration not stated) | inactive: -15.5%
52 | O=C(c1ccco1)N(Cc1cccs1)c1ccc(F)cc1 | inactive: 10.5%
53 | Cc1ccc(-n2c(CCC(=O)O)ccc2-c2cccs2)cc1Cl | inactive: -30.4%
54 | CC(C)c1nc2ccc(C(=O)NCc3ccccc3Br)cc2o1 | inactive: -17.8%
55 | CCc1ccccc1NC(=O)c1cc2nc(-c3ccc(Br)cc3)cc(C(F)(F)F)n2n1 | inactive: -19.5%
56 | Cc1cccc(OCc2cc(=O)n3c4c(sc3n2)CCCC4)c1C | inactive: -9.81%
57 | O=C(NCC1CCN(Cc2cccc(Cl)c2)CC1)Nc1ccc(F)c(Cl)c1 | inactive: 10.5%

Source: PubChem BioAssay AID1346428 (National Center for Advancing Translational Sciences (NCATS), 2018)
